# ± gives the standard deviation of the averaged measurements. Over roughly 33,000 sequences, “E-score (dimensionless, -0.5 to 0.5)” has its median near -0.046; the highest 2% begin near 0.36. Some of the results follow.
# Tested on: T1, SpTbr T-box DNA-binding domain (GST fusion)
# T1 sequence: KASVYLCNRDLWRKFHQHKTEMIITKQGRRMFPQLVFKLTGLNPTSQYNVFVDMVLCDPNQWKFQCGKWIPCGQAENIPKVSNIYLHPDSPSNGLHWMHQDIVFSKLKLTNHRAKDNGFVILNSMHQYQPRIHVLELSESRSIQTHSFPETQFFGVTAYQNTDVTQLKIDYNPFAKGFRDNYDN
# Assay: PBM E-score of 8-mer (E-score (dimensionless, -0.5 to 0.5)); Tbr is Tbrain of the sea star Patiria miniata (Pm) or the sea urchin Strongylocentrotus purpuratus (Sp); higher = stronger binding preference; most listed sequences are background and not binding sites
# Conditions: the construct has about 5 more residues each side
# Procedure, shortened: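 Each ungapped 8-mer received an enrichment E-score from the Universal PBM Analysis Suite, averaged over duplicate arrays. The proteins were Tbr T-box DNA-binding domains, covering the whole T-box plus about five flanking residues, fused to GST and expressed in BL21 E. coli at 20 °C before glutathione affinity purification. Universal Agilent oligonucleotide arrays were made double-stranded by primer extension and incubated with 200 nM protein in PBS (pH 7.5). The arrays were then scanned and quantified, and every 8-mer was scored from probe intensities.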
row,Sequence,PBM E-score of 8-mer
1,ATTTTGAC,0.183 ± 0.012
2,ACTGATCC,-0.204 ± 0.025
3,AACCACCC,-0.022 ± 0.044
4,GACTATAA,0.00588 ± 0.016
5,CTGAAACC,-0.0709 ± 0.00086
6,AAACAAAT,0.0768 ± 0.075
7,GCAAAACC,0.0522 ± 0.077
8,CAATTACG,-0.0652 ± 0.01
9,AATCACAG,0.06 ± 0.051
10,CCCTAGAA,-0.163 ± 0.011
11,CAGAACGG,-0.0617 ± 0.055
12,ACACGTAT,0.298 ± 0.015
13,CGTCCCGA,-0.121 ± 0.015
14,CGAAATTC,-0.00067 ± 0.073
15,AAGTACCT,-0.306 ± 0.038
16,ACGATCAC,0.119 ± 0.031
17,ATGCTGGC,-0.026 ± 0.013
18,AATAGCCC,-0.194 ± 0.016
19,ATTGGTTA,-0.129 ± 0.053
20,CGGAAATA,-0.121 ± 0.017
21,AACTGCTT,0.0483 ± 0.064
22,ACGCCGCG,0.124 ± 0.0048

row,Sequence,PBM E-score of 8-mer
1,TACGCGGA,-0.17 ± 0.059
2,AGAATGTA,-0.133 ± 0.04
3,CCCGAACA,-0.104 ± 0.0019
4,GGTTGCAA,0.145 ± 0.0094
5,CCATATCC,-0.2 ± 0.031
6,AGGGCGAT,0.0278 ± 0.053
7,GCCTTCGC,0.296 ± 0.0037
8,CGTGCGAA,0.4443 ± 0.0016
9,ACCCAAAA,-0.0829 ± 0.014
10,CAAGGCAA,0.0698 ± 0.018
11,GGTACGTA,-0.194 ± 0.033
12,TATATACA,-0.0689 ± 0.021
13,ACCCGGCG,0.0822 ± 0.0058
14,AGCAGACT,-0.0259 ± 0.0065
15,CTATTTCC,-0.0557 ± 0.046
16,CAGACTGA,-0.25 ± 0.036
17,CACACCCC,0.419 ± 0.025
18,ACATACGT,-0.0435 ± 0.038
19,ATAGGTCA,-0.207 ± 0.043
20,AGGGGGTG,0.269 ± 0.055
21,CGCCTGAA,-0.141 ± 0.027
22,GAATTTAC,-0.0912 ± 0.033

row,Sequence,PBM E-score of 8-mer
1,ACAATGAC,0.0379 ± 0.0064
2,ACAGGCTG,-0.0369 ± 0.043
3,ACGGGAAA,-0.0252 ± 0.065
4,GACAAGGC,0.0902 ± 0.017
5,AATAACTG,0.0825 ± 0.042
6,GCTCGAGC,-0.222 ± 0.013
7,AAGGTAAA,0.0683 ± 0.019
8,ACCATTAT,-0.247 ± 0.079
9,CGCGTCGC,0.192 ± 0.028
10,TGACATAA,0.111 ± 0.022
11,AACAATCT,0.0664 ± 0.044
12,TATTAACA,0.174 ± 0.052
13,AGAAGTGG,0.141 ± 0.0081
14,CACGATGG,-0.0559 ± 0.009
15,AATGCGAG,0.076 ± 0.053
16,GCACCTAA,0.339 ± 0.04
17,AGTCGGTG,-0.0564 ± 0.0046
18,ACGCGAAT,0.108 ± 0.0028
19,GGACTAGA,-0.12 ± 0.044
20,ACATGTAT,0.0162 ± 0.03
21,CGCAAGCA,0.0501 ± 0.095
22,CGCCCTCA,0.164 ± 0.057

row,Sequence,PBM E-score of 8-mer
1,AGATGACC,-0.114 ± 0.059
2,ATGAAGGC,-0.0596 ± 0.051
3,CTTAACCA,-0.139 ± 0.0031
4,TAAACGAA,-0.2 ± 0.12
5,ACCGCAGG,-0.012 ± 0.0022
6,AACTTCTT,-0.0093 ± 0.033
7,CATGTGAC,0.233 ± 0.023
8,AACATAGA,-0.26 ± 0.026
9,GGACCCGA,0.149 ± 0.04
10,GTGACAAA,0.38303 ± 5.7e-05
11,TAAATACA,-0.0351 ± 0.039
12,TCGTGAAA,0.253 ± 0.054
13,AACTCTCG,-0.0772 ± 0.075
14,TGTGCTAA,0.26 ± 0.011
15,GGACTTTA,-0.144 ± 0.067
16,AACCTTAG,-0.144 ± 0.086
17,CCCCGCCA,0.0876 ± 0.024
18,AGTATGCG,-0.1685 ± 0.00056
19,CAGTTATG,0.0272 ± 0.003
20,AGGCGTCG,0.349 ± 0.018
21,GCACCCGA,0.0696 ± 0.039
22,AACGTGCT,0.139 ± 0.036

row,Sequence,PBM E-score of 8-mer
1,AAATAATA,-0.023 ± 0.067
2,AGACTTAT,0.00662 ± 0.019
3,ACCAACGG,0.156 ± 0.012
4,AGCGGTTG,0.0435 ± 0.043
5,CGGCAGAC,-0.231 ± 0.0041
6,AGCAGGGG,-0.0981 ± 0.058
7,ATGGTGCC,0.153 ± 0.028
8,CTGTGCTC,-0.171 ± 0.044
9,GAACTCAA,-0.253 ± 0.097
10,GAAAGGGA,-0.158 ± 0.0061
11,GCACTAAC,0.213 ± 0.0027
12,AGCGGCTG,-0.131 ± 0.013
13,AATTTTGT,-0.166 ± 0.052
14,AGCACGAC,-0.0218 ± 0.05
15,AATTCAGC,-0.016 ± 0.024
16,ATCCTGGC,-0.188 ± 0.028
17,CACAGTCC,0.0591 ± 0.024
18,AATCGGAC,-0.106 ± 0.072
19,CCACTGTA,-0.0467 ± 0.067
20,ACTGAGCG,0.075 ± 0.019
21,GGCGTGAA,0.473 ± 0.0057
22,CAGCGGCA,0.0649 ± 0.1
